# Experimental data from PubChem BioAssay (Tox21).
# Inconclusive results, whose numbers are uncertain, are shown with a selection of clear calls. A potency beside an inconclusive call is a rough fit, not a confirmed value. The source made the active and inactive calls. Calls come from the whole dose curve; as a rule, active = well fitted cell-killing curve with a large enough effect in the repeat runs; inconclusive = weak or mixed curves, or effect the other way; inactive = no such curve, though single readings can be large or run the other way.
# Assay: qHTS assay to identify small molecule agonists of the RXR signaling pathway - cell viability counter screen (AID 1159529); note: nearly all actives have a fitted effect of over 50% in size
# Conditions: RXR-alpha-bla HEK293T viability, CellTiter-Glo, 16 h; series mostly up to 76.8 µM; activity change, negative = cytotoxicity: at the top concentration
# Source text: National Center for Advancing Translational Sciences [NCATS]
# NIH Chemical Genomics Center [NCGC]
# U.S. Environmental Protection Agency [EPA]
# National Institutes of Environmental Health Sciences [NIEHS]
# National Toxicology Program [NTP]
# U.S. Food and Drug Administration [FDA]
# The Retinoid X receptor (RXR), a nuclear hormone receptor expressed in liver, spleen, placenta, epidermis, central nervous system. These receptors are able to form homo and heterodimers with other nuclear receptors and due to this heterodimerizing ability, RXR functions as master regulators producing diverse physiological effects. Three subtypes of RXR exist; alpha, beta and gamma. Retinoid X receptor alpha (RXR-alpha) has potential roles in metabolic signaling pathways, skin alopecia, dermal cysts, cardiac development, insulin sensitization etc. Therefore screening environmental chemicals on RXR-alpha signaling can be used for the studies focused on such therapeutic applications. For quantification of RXR-alpha ligands signaling, GeneBLAzer RXR alpha-UAS-bla HEK 293T (Life Technologies, Carlsbad, CA) cells containing a beta-lactamase reporter-gene under control of Retinoid X receptor-alpha response element were used to screen Tox21 10K library. The cytotoxicity of the Tox21 compound library against the RXR-alpha HEK 293T cell line was tested in parallel by measuring cell viability using CellTiter-Glo assay (Promega Corporation, Madison, WI) in the same wells.
# Tox21 Assay Protocol Summary:
# RXR-alpha HEK 293T cells were dispensed at 2,000 cells/6 uL of assay medium containing 2% charcoal-stripped FBS using a Multidrop Combi (ThermoFisher Scientific, Waltham, MA) dispenser. The assay was performed in black wall/clear-bottom 1536-well plates (Greiner Bio-One North America Inc. Monroe, NC). Tetraoctyl ammonium bromide was used as a positive control in the cytotoxicity screen. After the assay plates were incubated at 37 C and 5% CO2 for 5 hr, 23 nL of compounds dissolved in DMSO, positive control or DMSO only were transferred to the assay plate by a Pintool station (Kalypsys, San Diego, CA). The assay plates were incubated at 37 C and 5% CO2 for 16 hr. One uL of LiveBLAzer B/G FRET substrate (Life Technologies) was added using a Flying Reagent Dispenser (FRD) (Aurora Discovery, San Diego, CA) and the plates were incubated at room temperature for 2 hr. Fluorescence intensity (405 nm excitation, 460/530 nm emission) was measured using an Envision plate reader (PerkinElmer, Shelton, CT). For cytotoxicity, 4 uL/well of CellTiter-Glo reagent was added into the assay plates using an FRD. After 30 min incubation at room temperature, the luminescence intensity was measured using a ViewLux plate reader (PerkinElmer).
# % is set by controls: 0 for no effect and ±100 for the full control effect; potency is the fitted concentration of half-maximal effect; tags give direction and shape of the fitted curve.
SMILES,Potency,"activity change, negative = cytotoxicity"
CC(C)(C)c1ccc(OCC2CO2)cc1 (stereo not given),inconclusive: 44.5 µM [cytotoxic],–
O=c1[nH]c2ccccc2c(=O)n1CCCl,"inconclusive: 9.52 µM [rising, partial curve, poor fit]",–
C/C=C1/CC2C=CC1C2 (stereo not given),inactive,–
O=[N+]([O-])c1ccc(Oc2ccc([N+](=O)[O-])cc2)cc1,–,inactive: 12.7%
CCCC(C)=O,"inconclusive: 0.389 µM [rising, partial curve, poor fit]",–
NCCNCCNCCN,"inconclusive: 12.1 µM [cytotoxic, partial curve, poor fit]",–
CC(C)C1OCCN1CCOC(=O)NCCCCCCNC(=O)OCCN1CCOC1C(C)C (stereo not given),–,inactive: 0.382%
CCc1cc(C2=C(C(=O)O)N(c3ccccc3C(F)(F)F)S(=O)(=O)c3ccccc32)cc2c1OCO2,"inconclusive: 4.84 µM [cytotoxic, partial curve, poor fit]",–
Cc1ccc(/C(=C\CN2CCCC2)c2ccccn2)cc1,"inconclusive: 36.5 µM [cytotoxic, partial curve, poor fit]",–
Clc1cccc(Cl)n1,–,inactive: -0.667%
N#CCCOCCC#N,–,inactive: -3.4%
CC(C)(CO)C(O)C(=O)NCCCO (stereo not given),–,inactive: 10.8%
Cc1nc2sccn2c(=O)c1CCN1CCC(=C(c2ccc(F)cc2)c2ccc(F)cc2)CC1,"inconclusive: 16.9 µM [cytotoxic, partial curve]",–
CCCc1cc(=O)[nH]c(=S)[nH]1,inactive,–
CC(C)CCCCCCCOC(=O)c1ccc(C(=O)OCCCCCCCC(C)C)c(C(=O)OCCCCCCCC(C)C)c1,"inconclusive: 48.2 µM [cytotoxic, single point]",–
CCC1(c2ccccc2)C(=O)NCNC1=O,inactive,–
O=C(Cl)c1cc(Cl)cc(Cl)c1,–,inactive: 2.88%
C[C@@H]1C[C@H]2[C@@H]3CCC4=CC(=O)C=C[C@]4(C)[C@@]3(F)[C@@H](O)C[C@]2(C)[C@H]1C(=O)CO,"inconclusive: 8.49 µM [cytotoxic, partial curve, poor fit]",–
Cc1noc(NS(=O)(=O)c2ccc(N)cc2)c1C,"inconclusive: 38.8 µM [cytotoxic, partial curve, poor fit]",–
CC1=CC(=C(c2ccc(N)cc2)c2ccc(N)cc2)C=CC1=N,"inconclusive: 1.39 µM [cytotoxic, full curve, poor fit]",–

SMILES,Potency,"activity change, negative = cytotoxicity"
C=CCCCCCC,"inconclusive: 59.4 µM [cytotoxic, partial curve, poor fit]",–
COc1ccccc1[N+](=O)[O-],inactive,–
COc1ccc(C(=O)Nc2nc3ccccc3c(NCc3ccccc3)c2C#N)cc1,"inconclusive: 61.6 µM [cytotoxic, single point]",–
CCCCCCCCCCCCC(=O)O,active: 24.6 µM,–
CCn1c2ccccc2c2ccccc21,"inconclusive: 21.9 µM [cytotoxic, partial curve, poor fit]",–
C=C(C)C(=O)Nc1ccc(Cl)c(Cl)c1,"inconclusive: 5.55 µM [cytotoxic, partial curve, poor fit]",–
CO[Si](CCCn1c(=O)n(CCC[Si](OC)(OC)OC)c(=O)n(CCC[Si](OC)(OC)OC)c1=O)(OC)OC,–,inactive: 6.65% [at 35.3 µM]
CNC(=S)NC,inconclusive: 21.9 µM [cytotoxic],–
CN(C)CCOC1=Cc2ccccc2Sc2ccc(Cl)cc21,"inconclusive: 10.7 µM [cytotoxic, full curve]",–
COc1ccc(Nc2ccccc2)c(C)c1,"inconclusive: 30.9 µM [cytotoxic, partial curve, poor fit]",–
CCCCCCCCCCCC(=O)N(C)CC(=O)O,"inconclusive: 33.6 µM [cytotoxic, partial curve]",–
COC(=O)c1cc(Cl)c(NC(C)=O)cc1OC,–,inactive: 0.0324% [at 35.3 µM]
Nc1nc(N)c(-c2ccccc2)s1,–,inactive: 7.3% [at 35.3 µM]
Oc1c(Cl)ccc(Cl)c1Cl,"inconclusive: 38.8 µM [cytotoxic, partial curve, poor fit]",–
OCC(O)c1ccccc1 (stereo not given),–,inactive: -19.9%
CC1=CC(C)(C)Nc2ccccc21,inactive,–
CCC(C)OC(=O)N1CCCCC1CCO (stereo not given),–,inactive: -1.07%
COc1ccc2c(c1)c(CC(=O)O)c(C)n2C(=O)c1ccc(Cl)cc1,"inconclusive: 27.7 µM [cytotoxic, partial curve, poor fit]",–
CCCCOCCOCCOCCOCCO,–,inactive: -14.3%
CC(C)C(=O)Nc1cccc(C2CN3CCSC3=N2)c1 (stereo not given),–,inactive: -1.75% [at 35.3 µM]
